Results taken from PubChem BioAssay AID651820 (National Center for Advancing Translational Sciences (NCATS), 2012).
Values joined by “and” are separate entries in the source; they are usually repeats but may differ in a detail not shown here. Equal entries are not always repeated. Hit rate of the full screen: of about 340,000 compounds, about 12,000 (3.5%) were called active. Inconclusive results, whose numbers are uncertain, are shown with a selection of clear calls. Calls come from the whole dose curve; as a rule, active = well fitted inhibition curve with a large enough effect; inconclusive = small, poorly fitted or top-dose-only effect, or another doubt; inactive = no such curve, though single readings can be large or run the other way. Potencies beside an inconclusive call are fits to weak or partial responses and may not hold up.

Assay: qHTS Assay for Inhibitors of Hepatitis C Virus (HCV)
Conditions: Huh7.5.1 HCVcc-Cre (HCVcc is cell-culture hepatitis C virus) infection, luciferase reporter, 44 h; series mostly up to 41.8 µM
Outline: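 HCVcc-Cre virus at an moi near 0.5 was added right after compound to cells cultured 4 h from seeding (1,000 cells/well). Luciferase activity was determined 44 h later, 15 min after substrate addition at RT.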
Potency is the fitted concentration of half-maximal effect; tags give direction and shape of the fitted curve.

Row | Structure (SMILES) | Potency
1 | Nn1c(SCC(=O)NC2CCS(=O)(=O)C2)nnc1-c1ccco1 (stereo not given) | inactive
2 | COC(=O)c1ccccc1NC(=O)Cn1c(-c2nonc2N)nc2ccccc21 | inconclusive: 0.501 µM [inhibitor, full curve]
3 | O=C(Nc1cccc(C(=O)N2CCCCC2)c1)c1ccccc1 | inactive
4 | CC(=O)c1ccc(OCCCC(=O)N2CCN(S(=O)(=O)c3cc(C)ccc3C)CC2)cc1 | inconclusive: 14.1 µM [inhibitor, single point]
5 | CC(=O)Nc1c(C)ccc([N+](=O)[O-])c1C | inactive
6 | Cc1nn(-c2ccccc2)c(C)c1/C=N/NC(=O)c1cc(-c2ccccc2)n[nH]1 | inconclusive: 20 µM [inhibitor, partial curve, poor fit]
7 | COc1ccc(NC(=O)CN2c3cccc4cccc(c34)S2(=O)=O)c(OC)c1 | inconclusive: 12.6 µM [inhibitor, partial curve]
8 | CC(=O)Oc1ccccc1C(=O)N1CCN(S(=O)(=O)c2ccc3ccccc3c2)CC1 | inactive
9 | CCOC(=O)c1c(CN2CCC(C)CC2)n(C)c2cc(Br)c(OC)cc12 | inconclusive: 10 µM [inhibitor, partial curve, poor fit]
10 | O=[N+]([O-])c1ccc(Sc2cccc3cccnc23)c2cccnc12 | active: 10 µM
11 | CNS(=O)(=O)c1cc(Nc2ncnc3sccc23)ccc1C | inconclusive: 11.2 µM [inhibitor, partial curve]
12 | CCC(C)N1C(=O)/C(=C\c2cnc(N(C)C)nc2)C(=O)NC1=S (stereo not given) | inactive
13 | COc1ccc(N(CC(=O)Nc2ccccc2F)S(=O)(=O)c2ccc(OC)c(OC)c2)cc1 | inconclusive: 11.2 µM [inhibitor, single point]
14 | NC(=O)COC(=O)c1ccc(-c2ccc(O)cc2)cc1 | inactive
15 | CCCCCc1nnc(NC(=O)C2=COCCO2)s1 | inactive
16 | COc1cc2[nH]c(=O)c(C(=O)NCCCN3CCCCC3)c(O)c2cc1OC | inconclusive: 31.6 µM [inhibitor, single point] and inconclusive: 22.4 µM [inhibitor, single point]
17 | Cc1nnc(SCc2ccc(F)cc2)s1 | inactive
18 | COc1ccc(C(=O)NCCn2cc(SCC(=O)Nc3nnc(C)s3)c3ccccc32)cc1 | inconclusive: 10 µM [inhibitor, partial curve]
19 | O=C(O)c1ccc(NCc2cccnc2)c([N+](=O)[O-])c1 | inactive
20 | CC(C)(C)c1ccc(C(=O)NC(=S)NCC2CCCO2)cc1 (stereo not given) | inactive
21 | CC(=O)N(c1ccccc1)c1nc2ccccc2s1 | inconclusive: 11.2 µM [inhibitor, single point]
22 | CC1CCC(NC(=O)CN(C)CC(=O)Nc2ccc(F)cc2)CC1 (stereo not given) | inconclusive: 3.16 µM [inhibitor, single point]
23 | CCN1C[C@@H]2[C@@H]3C(=O)N(C)C(=O)[C@@H]3[C@](Cc3ccccc3)(C(=O)OC)N2C1=NC1CCCCC1 | inconclusive: 3.16 µM [inhibitor, single point]

Row | Structure (SMILES) | Potency
24 | CCOc1ccc2nc(N(CCN(CC)CC)C(=O)c3cccc([N+](=O)[O-])c3)sc2c1 | inactive
25 | CC(C)n1c(O)c(N=NC(=O)C2COc3ccccc3O2)c2ccccc21 (stereo not given) | inconclusive: 8.91 µM [inhibitor, partial curve]
26 | COC(C(=O)Nc1ccnn1C1CCN(Cc2ccc(Cl)s2)CC1)c1ccccc1 (stereo not given) | inactive
27 | COc1ccc2c(C)nc(Nc3nc(-c4ccccc4)cc(=O)[nH]3)nc2c1 | active: 5.62 µM
28 | C=CCOc1nc2c(c(=O)n(C)c(=O)n2C)n1Cc1ccc(Cl)cc1 | inconclusive: 11.2 µM [inhibitor, single point]
29 | COC(=O)[C@@]1(C)[C@H]2C(=O)N(C)C(=O)[C@H]2[C@H]2CN=C(SCc3ccc(C#N)cc3)N21 | active: 0.562 µM
30 | CCOc1ccc2oc(C(=O)OCC(=O)N3CC(C)OC(C)C3)c(C)c2c1 (stereo not given) | inconclusive: 11.2 µM [inhibitor, single point]
31 | COC(=O)CNC(c1ccccc1)c1cc(C)ccc1NS(=O)(=O)c1ccc(C)cc1 (stereo not given) | active: 6.31 µM
32 | CC1CCN(C(=O)CSc2nnc(CNC(=O)c3ccc(S(=O)(=O)N(C)C)cc3)o2)CC1 | inconclusive: 35.5 µM [inhibitor, partial curve, poor fit]
33 | CCCCn1c(C)c(C(=O)OCC)c2c(CN3CCOCC3)c(O)ccc21 | active: 25.1 µM
34 | Cc1ccccc1C(=O)N1CCC(C(=O)N2CCCc3ccccc32)CC1 | inconclusive: 11.2 µM [inhibitor, single point]
35 | COC(=O)C1C(O)=C(C=Nc2ccc3ccccc3c2)C(=O)CC1(C)C (stereo not given) | inactive
36 | Nc1cc(S(=O)(=O)O)cc2ccc(S(=O)(=O)O)cc12 | inactive
37 | CNC(=O)c1c(NC(=O)c2ccco2)sc(C)c1C | inconclusive: 11.2 µM [inhibitor, single point]
38 | CCCCC1C2C(=O)N(c3ccccc3)C(=O)C2ON1c1ccccc1 (stereo not given) | inactive
39 | Cc1ccn2cc(-c3cccc(S(=O)(=O)N4CCCCC4)c3)nc2c1 | inconclusive: 31.6 µM [inhibitor, single point]
40 | Cc1nc2ccccc2c(C)c1CC(=O)N(CC(C)C)c1c(N)n(Cc2ccccc2)c(=O)[nH]c1=O | inconclusive: 5.62 µM [inhibitor, single point]
41 | O=C(Nc1ccccn1)C1CCN(S(=O)(=O)c2ccccc2)CC1 | inactive
42 | CCN(CC)c1ccc2cc(C(N)=O)/c(=N\NC(=O)c3ccncc3)oc2c1 | inconclusive: 31.6 µM [inhibitor, single point]
43 | N#CCNC(=O)c1nn2c(C(F)(F)F)cc(-c3ccccc3)nc2c1Br | inconclusive: 2.82 µM [inhibitor, partial curve]
44 | c1ccc2c(Nc3ccc(N4CCOCC4)cc3)nc(N3CCOCC3)nc2c1 | inconclusive: 31.6 µM [inhibitor, single point]
45 | COc1cccc(NC(=O)c2ccc(NCCCN3CCC(C)CC3)c([N+](=O)[O-])c2)c1 | inconclusive: 11.2 µM [inhibitor, partial curve]
